Assay results taken from the RNAGym collection of RNA variant scans (doi:10.7554/elife.90254).
Read counts are not given, so values of variants with three or more changes are uncertain.

B1: LINE1-mini (parent)
chain: GGCAGAGCUCAACACAGCGUGGCAAAGUGGCUGUGGCUAGACUGCC

Variants of: B1
Assay: self-cleavage, relative activity (ratio to wild type); higher = more cleavage; in vitro, sequencing; the parent is a self-cleaving ribozyme

Variant | self-cleavage
C3G G7C U20A A26U U32A G35A C37A | 0.01
U20A C23G U34A | 0.03
C8G C10A G21U G27C G35A U43C | 0.04
A4U A14U G17A A26G A41G C42U | 0.2
C23G C31G G33U | 0.03
G1A G35C U38C U43G | 0.19
G17U A24U G36C C37U | 0.04
G7C G33U C42U | 0.08
G1U A14C A25C U34G | 0.05
G7C C18A U43C | 0.04
G7C A14C C31G | 0
G5A C13U C15A | 0.01
G17A U20G G22U G40U | 0.03
A11C G17A C31U | 0.07
G2U C8A G30A C45G | 0.06
C10G G44U C46G | 0.04
A14C A16C G19U G44C | 0.05
C10A U32A G33A A39U C46A | 0.01
C8U G17A G19A U20C G21U | 0.08
G2A A6C G7C C8G C15G G35C A39G U43A C45A | 0.1
G17C A25U G33A | 0.05
C3U G5U G17C U20C | 0.03
C31U G44A C45G | 0.04
G2U C8G G29U | 0.01

Variant | self-cleavage
A6C A12G A25U U38A | 0.03
C8G A14G G27C | 0.05
A24G A25G G30A | 2.82
C3G G7A G19A G22U G29U U32A | 0.17
C18A U20G U34C | 0.01
U9A C10G A41G | 0.01
G1U C23U G40U | 0.09
A6G U9C C10U A11C A12U A24C U32A | 0.02
U9G C10A G27A U34A C42G U43G | 0.01
A6G U28A U34C | 0.02
G29C G40U C42G | 0.03
U9C G29C G36C | 0.01
G7U G22A C31U | 0.05
C3U G21U A24C G35C G36A | 0.01
A14U G21A A25U U28A U32A C37U | 0.02
U34A C37G A39U | 0.01
G7A G21A C42U | 0.17
C3U G5C C15U C18G G21C A24C G27C G40C | 0.21
C3A U9A C18A G29U G36U G40U | 1.21
A12G U28A U43A | 0.03
C18G G22U G29U | 1.72
A6G C10A A14G A24G C46A | 0.02
C3A A6U U38G | 0.09
A16C C23A C42G | 0.04

Variant | self-cleavage
A4U C10G G22A A24U | 0.03
G7U G27U C46G | 0.04
A12C C13A C23U A26U | 0.01
A4U U9G A16C G19A | 0.01
C8U U32A G40A A41G | 0.19
C10G C23U C31G | 0.1
G7C C10U G19U | 0.01
C3U G5U C10G A11C A16G A39U | 0.01
A4G G5U C18A U32A G36U | 0.01
C3G G27C C45A | 0.1
G1A C15A U32A U34G | 0.05
G2U C3U A6U C8U C46A | 1.65
G2A C15U C23A C42U | 0.32
A6U A39C C45A | 0.13
C15G G22C G30A | 0.03
G1U C3U G5U A24G | 0.18
G2A C8A A16U G30U | 0.88
G5U C8U C15A U38A | 0.17
G1A C15G A16G | 0.15
C3U A14G G33U | 0.06
G1U A6G C10G A12U G33C | 0.02
C8A U9C G29C C42G | 0.1
G22C C31U U34C C46U | 0.03
A12G G27U U43G | 0.26

Variant | self-cleavage
C23U C31G G40A | 0
G21C A24U G27C C37A G44U | 0.14
C15U G19C G33U C46A | 0.01
G2C U32G C45A | 0.03
G2A C18U C37U C46G | 0.05
A14C G19U A26G U32A A41G | 0.05
G29A G30U U32C | 0.05
G1U A4G U32G A39G C45U C46U | 0.04
G2A G22C G35A | 0.36
G1C A6U G21U | 0.19
U9A C13G C18U | 0.02
C23U U28C G29U | 0.22
A14U G21A G22U A24C G40U | 0.13
U9C C42G C46A | 0.01
C8A C23U U43C | 0.06
A6G A12G A41U C46U | 0
A6C G7C G35U C46A | 0.03
G7A U32C G36A | 0.13
C8G A16G G22U A26U | 0.07
C8U G19C U28G G33A | 0.09
A4U C10G A25G G35A | 0.02
A6C U34A U38A | 0.02
A14G G19U G27C A39U | 0.15
G2U C8G G30U A39G | 0.04

Variant | self-cleavage
C3A C18A G29A | 0.1
A6U A24G A25C U28A U38A C42A | 0.02
C3A A4C G7U C31U U32G G33C | 0.58
U20G C23G G36C | 0.06
C13G C37U A41G | 0.03
C10A A11U U28A G33A G35U C37U | 0.01
C10A C15G G21C A26U | 0.03
G29C G33U A41U | 0.14
C3G G19C C45G | 0.09
C13G G30C C31G G35C | 0.47
C23G G30C A41G | 0.28
G19A G21C G44A | 0.17
G2A G17C G22C | 0.42
A11C A12G G40C | 0.02
G2A A12C A16C U20A C37G A39U | 0.02
A4C G17U G21A | 0.02
C8G C13A U32G G40U | 0.19
G17U C18G G19C G36A | 0.31
C8A U32C A39G C42A | 0.38
C3U G21A G36A | 0.2
C3U G5U G7A C10A A16U A39C C46A | 0.03
A6U G7U C45A | 0.43
C23U U32G U34C C37U | 0.64
A4U C18U G30C C42A | 0.32

Variant | self-cleavage
G1C G5A U9A C13U C31G G40C | 0.06
C13G A26C U28G C45U | 0.04
C3U A4U G22A G27U | 0.08
A4G A16U U20A A26C | 0.06
G30A U32A U43C | 0.06
G7C A14C U28A G30U G44C | 0.02
G21A G22U G27U | 0.23
A11U G27C U28A G33A C42G | 0
G5C C10G G27A C42A C46G | 0.01
C3U G21U A39U C45A | 0.29
G5A C15G G30C U34A | 0.04
A4G A12U G30C G40A | 0.02
G30A C37G U43A | 0.01
G7A G29C A41G | 0.01
C8U C13G C31A U34C | 0.08
G30U G35U C46U | 0.23
G30U C31U G33C | 0.02
A14U G19U C37A | 0.36
G1U C13U C31G C42A | 0
G27C G35A C42U | 0.03
C10A A24U A25C U32A G40C | 0
C13G C18U G22C | 0.02
A12U G17U C37U C45U | 0.02
A11G G35U G44U | 0.03

Variant | self-cleavage
U9C U20C A24U G40C | 0.02
G2C G40U C42U | 0.03
A6C C10A G17A G40A | 0.02
G5C U28G G40C | 0.01
C3U G7A C42U | 0.07
A6C G33A C42A C45G | 0.03
G5U A12C U20G A24U G33A U34A C37G | 0.02
A11G G17C C31U C45A | 0.01
A6G A11U G29U A39C | 0.01
A14C G33A C46U | 0.1
C8U C23U C37U | 0.09
C3G C23A C42G G44U | 0.02
A39C A41C C46U | 0.1
A4G G5U A39G A41U U43C | 0.01
G2C G7A G19U U43A | 0.2
C18U G35U G36U U38C A41C | 0.09
G2A G5C C15A C18G U32C G40U | 0.02
A11C A12G G29C | 0.01
A4C A6C A12C C18A A25U A26G G40A C46A | 0.01
A4U C10U U43C G44A | 0.06
A4C U32G C46U | 0.03
U9G G21C G29C G44A | 0.05
G1U U28A U32G | 0.04
